# Measured values published in publication PMC4336329 (PLoS ONE, 2015).
# The campaign covered roughly 310,000 compounds. About 14,000 (4.5%) showed an effect of 50% or more. Effects have a minus sign here. Some of the results follow.
# Molecular target: human ether-à-go-go-related gene (hERG) potassium channel (human, UniProt Q12809)
# Assay: primary screen, population patch clamp on CHO cells stably expressing hERG
# 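Further: peak tail current of the secondary pulse compared with the same well before compound.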
# Sequence of human ether-à-go-go-related gene (hERG) potassium channel (Q12809 whole entry, looked up): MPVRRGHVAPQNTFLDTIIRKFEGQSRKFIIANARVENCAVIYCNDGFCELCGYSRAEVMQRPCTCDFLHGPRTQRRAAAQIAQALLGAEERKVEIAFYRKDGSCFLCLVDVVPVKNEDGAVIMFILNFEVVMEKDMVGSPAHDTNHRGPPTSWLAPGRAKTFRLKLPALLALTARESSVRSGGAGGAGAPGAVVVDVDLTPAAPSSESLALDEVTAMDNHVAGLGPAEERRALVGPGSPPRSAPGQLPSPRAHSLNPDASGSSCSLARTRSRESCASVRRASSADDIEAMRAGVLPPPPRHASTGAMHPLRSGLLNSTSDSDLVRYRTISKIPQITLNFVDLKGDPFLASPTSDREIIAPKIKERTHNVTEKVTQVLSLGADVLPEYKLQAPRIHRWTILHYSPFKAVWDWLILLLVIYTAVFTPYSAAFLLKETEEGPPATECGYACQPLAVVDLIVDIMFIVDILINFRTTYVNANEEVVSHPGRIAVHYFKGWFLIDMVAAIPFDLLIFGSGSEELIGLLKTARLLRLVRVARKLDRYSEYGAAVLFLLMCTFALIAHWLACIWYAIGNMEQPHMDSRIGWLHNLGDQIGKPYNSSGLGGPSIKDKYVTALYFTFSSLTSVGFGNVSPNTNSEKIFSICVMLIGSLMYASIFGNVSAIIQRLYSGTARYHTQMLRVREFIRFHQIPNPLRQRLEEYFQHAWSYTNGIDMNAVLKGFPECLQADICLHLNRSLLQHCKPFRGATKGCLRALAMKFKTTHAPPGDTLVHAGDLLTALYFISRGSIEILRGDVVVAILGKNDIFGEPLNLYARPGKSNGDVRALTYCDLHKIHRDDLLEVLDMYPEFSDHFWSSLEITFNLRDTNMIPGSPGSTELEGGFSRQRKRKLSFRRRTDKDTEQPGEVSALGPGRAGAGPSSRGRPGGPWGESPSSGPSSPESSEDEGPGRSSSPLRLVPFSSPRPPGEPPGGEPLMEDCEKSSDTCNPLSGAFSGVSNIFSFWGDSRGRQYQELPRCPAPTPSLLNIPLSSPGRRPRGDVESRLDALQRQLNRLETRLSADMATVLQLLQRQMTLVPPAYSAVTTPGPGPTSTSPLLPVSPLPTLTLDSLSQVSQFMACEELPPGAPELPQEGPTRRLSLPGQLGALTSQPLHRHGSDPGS
row,SMILES,"hERG current change (%, negative = inhibition) at 10uM [%]"
1,C#CCn1c2ccccc2c2nc3ccccc3nc21,16.5
2,Cc1cccc(NC(=O)c2cccc(OC(=S)N3CCOCC3)c2)c1C,5.1
3,Cc1ccc(N2C(=O)CC(Nc3ccc(Cl)c(S(=O)(=O)N(C)C)c3)C2=O)c(C)c1 (centres unmarked),-4.31
4,CN(C)c1cccc(N(C)C)c1CNC(=O)NC(=O)c1c(F)cccc1F,18.4
5,CCOC(=O)C(=CNc1cc(C)nn1C(C)(C)C)C(=O)OCC,-0.0655
6,COc1ccc(NC(=O)NNC(=O)c2ccc3ccccc3c2O)c(OC)c1,3.97
7,COc1ccccc1C1/C(=C(/O)c2ccc(C)cc2)C(=O)C(=O)N1Cc1ccco1 (centres unmarked),2.75
8,COc1ccc(C(=O)CSc2nc(C)cc(C)n2)cc1[N+](=O)[O-],-6.17
9,CCOC(=O)c1sc(NC(=O)C(C)Sc2nnc(N)s2)nc1C (centres unmarked),14.5
10,Cc1cc(S(=O)(=O)Nc2ccccc2C(=O)O)ccc1Cl,23.4
11,O=C(Cn1cnc2c(nnn2-c2ccccc2)c1=O)NCC1CCCO1 (centres unmarked),15.1
12,COc1ccc(CN(C)CC(=O)Nc2sc3c(c2C#N)CCC3)cc1OC,3.85
13,CCc1cccc(CC)c1NC(=O)CN1CC(C)SC1=NC1CCCCC1 (centres unmarked),3.42
14,Cc1ccc(S(=O)(=O)Oc2ccccc2N2C(=O)C3CC=CCC3C2=O)cc1 (centres unmarked),-4.06
15,COc1ccc(C(=O)N2CCN(CCNC(=O)C(=O)Nc3ccc(F)cc3)CC2)cc1OC,-61.5
16,CCOC(=O)c1ccccc1NC(=O)COc1coc(CN2CCc3ccccc32)cc1=O,-36
17,CCCc1cc(=O)oc2cc(C)cc(OCc3nn[nH]n3)c12,13
18,CCC(C)(C)NC(=S)Nc1ccccc1C,13.4
19,COc1ccc(N2CCN(C(=O)c3cc4cc(Cl)ccc4[nH]3)CC2)cc1,9.33
20,COc1ccc2cc(C(=O)C3CCCN(C(=O)c4csnn4)C3)ccc2c1 (centres unmarked),-13.2
21,CN(C)S(=O)(=O)c1ccc(C(=O)NCC[N+]2(C)CCCCCC2)o1.[I-],16.3
22,CCCCCn1c(=O)c(C(=O)Nc2ccccc2Cl)c(O)c2ccccc21,14.9
23,Cc1cc(C)n(CC(=O)N2CCCC(N3CCN(Cc4ccc5c(c4)OCO5)CC3)C2)n1 (centres unmarked),-14.2
24,O=C1OCc2ccc(NC(=O)c3ccccc3C(=O)O)cc21,1.1
25,O=[N+]([O-])c1cc([N+](=O)[O-])c2c(=Nc3ccccc3)n(-c3ccccc3)n(O)c2c1,-14.3
26,CCSc1nnc(NC(=O)CSc2nccn2-c2cccc(C)c2)s1,-2.41
27,CN(Cc1ccccc1)C(=O)c1nc2ccccn2c1CN1CCC(N2CCOCC2)CC1,-16.6

row,SMILES,"hERG current change (%, negative = inhibition) at 10uM [%]"
1,CCCN(CCC)CCNC(=O)c1cc2c(-c3ccc(Cl)cc3)nn(C)c2s1,-65.6
2,Cc1cc2oc(=O)c(CC(=O)NCCCN(C)C)c(C)c2c2occ(C(C)(C)C)c12,-69.1
3,O=C(CCC(=O)NNC(=O)c1ccc([N+](=O)[O-])cc1)NCc1ccccc1,10.9
4,COC(=O)c1cc(S(=O)(=O)N2CCOCC2)ccc1Sc1ccccc1N,-6.97
5,Cc1cc(C)c2oc(C(=O)Nc3ccc(S(=O)(=O)Nc4nccc(C)n4)cc3)cc(=O)c2c1,16.1
6,CCOC(=O)c1ccc(Oc2nc(OC)cc(OC)n2)cc1,10.8
7,CN1C(=O)C(O)(CC(=O)c2ccccc2O)c2cc(Br)ccc21 (centres unmarked),3.54
8,COc1ccc(C(=O)OCC(=O)NCC2CCCO2)cc1 (centres unmarked),17.7
9,Cc1ccc(OCC(=O)N2CCN(C(=O)c3cccc(F)c3)CC2)cc1,-13.3
10,O=C(Nc1ccc(F)cc1F)c1cccnc1,21.1
11,CC(=O)c1cccc(NC(=O)CSc2ccc(-c3ccc4c(c3)OCO4)nn2)c1,7.69
12,CCOc1ccc(NC(=S)Nc2ccc(OC)cc2)cc1,12.8
13,Cc1ccc(S(=O)(=O)N(C)Cc2ccc(C(=O)N/N=C/c3ccc(OC(F)F)cc3)cc2)cc1,10.7
14,COc1ccc(S(=O)(=O)N(C)CC(=O)NC2CCCC2)cc1OC,13.7
15,O=C(/C=C/c1cccc(F)c1)Nc1cc(S(=O)(=O)N2CCOCC2)ccc1N1CCCC1,-57.7
16,COC(=O)[C@@H]1C[C@@H]2CC[C@@H](O)C[C@@H]2N1Cc1ccccc1OS(=O)(=O)c1ccc(C)cc1,-10.2
17,Cc1ccc(C2C3C(=O)N(c4ccccc4)C(=O)C3N3CCCN23)cc1 (centres unmarked),14.9
18,NS(=O)(=O)c1ccc(CCNC(=O)CNCCc2ccc(C(F)(F)F)cc2)cc1.O=C(O)C(=O)O,-21.5
19,CC1CCCN(c2ccc(/C=C(\C#N)c3nn(-c4ccccc4)c(N)c3C#N)cc2[N+](=O)[O-])C1 (centres unmarked),12.9
20,CC(=O)OCCN1C(=O)c2cccc3cc([N+](=O)[O-])cc(c23)C1=O,-26.9
21,Cc1ccc(OCC(=O)N(Cc2cccc(Cl)c2)C2CCS(=O)(=O)C2)cc1C (centres unmarked),4.83
22,CCCN(C(=O)c1ccccc1N)c1c(C)n(C)n(-c2ccccc2)c1=O,12.7
23,Cc1ccc(C)c(NC(=O)CN(C)C(=O)c2ccc3[nH]c4c(c3c2)CC(C)CC4)c1 (centres unmarked),12.1
24,Cc1ccc(-c2cc(C(=O)NCCCN3CCOCC3)no2)cc1,-30.8
25,CCN1CCc2c(sc(NC(=O)Nc3ccc(Cl)c(Cl)c3)c2C(N)=O)C1,-41.5
26,NC1=C(Br)C(=O)c2ccccc2C1=O,5.22
